Source: patent US20250066372A1, “HETEROCYCLIC COMPOUNDS, COMPOSITIONS THEREOF, AND METHODS OF TREATMENT THEREWITH” (BeiGene, Ltd., priority 2022, published 2025)

biological target: CDK6/Cyclin D3 (Homo sapiens (Human), UniProt Q00534); conditions: read-out: CDK6/Cyclin D3 IC50; TR-FRET, 1 mM ATP, 0.15 μM Rb (Ser780)-biotin substrate
UniProt Q00534, sequence (Q00534 whole entry): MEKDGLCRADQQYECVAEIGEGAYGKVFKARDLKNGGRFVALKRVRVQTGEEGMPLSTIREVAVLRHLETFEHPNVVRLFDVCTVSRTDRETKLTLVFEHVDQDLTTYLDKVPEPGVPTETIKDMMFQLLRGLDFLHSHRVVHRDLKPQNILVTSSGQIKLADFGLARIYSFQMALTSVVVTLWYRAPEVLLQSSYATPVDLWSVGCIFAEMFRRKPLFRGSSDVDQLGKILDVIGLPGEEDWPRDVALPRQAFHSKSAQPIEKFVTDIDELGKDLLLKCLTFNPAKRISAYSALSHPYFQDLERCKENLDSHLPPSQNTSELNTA
UniProt Q00534, sequence (P30281 whole entry partner): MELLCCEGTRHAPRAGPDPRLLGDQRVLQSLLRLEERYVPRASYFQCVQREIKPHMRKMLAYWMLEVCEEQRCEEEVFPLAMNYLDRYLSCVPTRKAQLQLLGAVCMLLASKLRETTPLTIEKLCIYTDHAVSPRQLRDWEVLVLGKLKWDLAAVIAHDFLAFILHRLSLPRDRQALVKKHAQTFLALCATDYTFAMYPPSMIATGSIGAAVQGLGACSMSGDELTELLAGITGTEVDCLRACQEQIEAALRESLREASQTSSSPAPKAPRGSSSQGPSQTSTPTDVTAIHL

SMILES	IC50 [µM]
CN(C)C(=O)c1cc2cnc(N[C@@H]3CCOC[C@H]3O)nc2n1C1CCCC1 [Example 1, 7-cyclopentyl-2-(((3S,4R)-3-hydroxytetrahydro-2H-pyran-4-yl)amino)-N,N-dimethyl-7H-pyrrolo[2,3-d]pyrimidine-6-carboxamide]	1.04
CC(=O)c1c(C)c2cnc(N[C@@H]3CCOC[C@H]3O)nc2n(C2CCCC2)c1=O [Example 2 in WO2020212865, reference compound]	0.037
CN1CCc2cc(-n3c(C(=O)N(C)C)cc4cnc(N[C@@H]5CCOC[C@H]5O)nc43)ccc2C1 [Example 8, 2-(((3S,4R)-3-hydroxytetrahydro-2H-pyran-4-yl)amino)-N,N-dimethyl-7-(2-methyl-1,2,3,4-tetrahydroisoquinolin-6-yl)-7H-pyrrolo[2,3-d]pyrimidine-6-carboxamide]	6.76
CN(C)C(=O)c1cc2cnc(N[C@@H]3CCOC[C@H]3O)nc2n1-c1ccc2c(c1)CCCC2N(C)C (stereo partly drawn) [Example 9, 7-(5-(dimethylamino)-5,6,7,8-tetrahydronaphthalen-2-yl)-2-(((3S,4R)-3-hydroxytetrahydro-2H-pyran-4-yl)amino)-N,N-dimethyl-7H-pyrrolo[2,3-d]pyrimidine-6-carboxamide]	0.779
CN(C)C(=O)c1cc2cnc(N[C@@H]3CCOC[C@H]3O)nc2n1-c1ccc2c(c1)C1(CCC2N(C)C)CC1 (stereo partly drawn) [Example 10, 7-(4′-(dimethylamino)-3′,4′-dihydro-2′H-spiro[cyclopropane-1,1′-naphthalen]-7′-yl)-2-(((3S,4R)-3-hydroxytetrahydro-2H-pyran-4-yl)amino)-N,N-dimethyl-7H-pyrrolo[2,3-d]pyrimidine-6-carboxamide]	0.584
CN(C)C(=O)c1cc2cnc(N[C@@H]3CCOC[C@H]3O)nc2n1-c1ccc2c(c1)C(F)(F)CCC2N(C)C (stereo partly drawn) [Example 11, 7-(5-(dimethylamino)-8,8-difluoro-5,6,7,8-tetrahydronaphthalen-2-yl)-2-(((3S,4R)-3-hydroxytetrahydro-2H-pyran-4-yl)amino)-N,N-dimethyl-7H-pyrrolo[2,3-d]pyrimidine-6-carboxamide]	0.103
CN(C)C(=O)c1cc2cnc(N[C@@H]3CCOC[C@H]3O)nc2n1-c1ccc2c(c1)C1(CC1)CC2N(C)C (stereo partly drawn) [Example 13, 7-(3′-(dimethylamino)-2′,3′-dihydrospiro[cyclopropane-1,1′-inden]-6′-yl)-2-(((3S,4R)-3-hydroxytetrahydro-2H-pyran-4-yl)amino)-N,N-dimethyl-7H-pyrrolo[2,3-d]pyrimidine-6-carboxamide]	2.68
CC(C)n1c(C(C)(C)O)nc2c(F)cc(-c3nc(N[C@@H]4CCOC[C@H]4O)ncc3Cl)cc21 [Example A94 in WO2019207463, reference compound]	0.12

Continued, values first:

IC50 [µM]	SMILES
8.4	Cc1ccc(-n2c(C(=O)N(C)C)cc3cnc(N[C@@H]4CCOC[C@H]4O)nc32)cc1 [Example 2, 2-(((3S,4R)-3-hydroxytetrahydro-2H-pyran-4-yl)amino)-N,N-dimethyl-7-(p-tolyl)-7H-pyrrolo[2,3-d]pyrimidine-6-carboxamide]
3.54	CN(C)Cc1ccc(-n2c(C(=O)N(C)C)cc3cnc(N[C@@H]4CCOC[C@H]4O)nc32)cc1 [Example 3, 7-(4-((dimethylamino)methyl)phenyl)-2-(((3S,4R)-3-hydroxytetrahydro-2H-pyran-4-yl)amino)-N,N-dimethyl-7H-pyrrolo[2,3-d]pyrimidine-6-carboxamide]
0.778	CN(C)Cc1ccc(-n2c(C(=O)N(C)C)cc3cnc(N[C@@H]4CCOC[C@H]4O)nc32)cc1C1CC1 [Example 4, 7-(3-cyclopropyl-4-((dimethylamino)methyl)phenyl)-2-(((3S,4R)-3-hydroxytetrahydro-2H-pyran-4-yl)amino)-N,N-dimethyl-7H-pyrrolo[2,3-d]pyrimidine-6-carboxamide]
5.06	CN(C)Cc1ccc(-n2c(C(=O)N(C)C)cc3cnc(N[C@@H]4CCOC[C@H]4O)nc32)cc1F [Example 5, 7-(4-((dimethylamino)methyl)-3-fluorophenyl)-2-(((3S,4R)-3-hydroxytetrahydro-2H-pyran-4-yl)amino)-N,N-dimethyl-7H-pyrrolo[2,3-d]pyrimidine-6-carboxamide]
2.77	CN(C)Cc1ccc(-n2c(C(=O)N(C)C)cc3cnc(N[C@@H]4CCOC[C@H]4O)nc32)cc1Cl [Example 6, 7-(3-chloro-4-((dimethylamino)methyl)phenyl)-2-(((3S,4R)-3-hydroxytetrahydro-2H-pyran-4-yl)amino)-N,N-dimethyl-7H-pyrrolo[2,3-d]pyrimidine-6-carboxamide]
0.71	CN(C)Cc1ccc(-n2c(C(=O)N(C)C)cc3cnc(N[C@@H]4CCOC[C@H]4O)nc32)cc1C(F)(F)F [Example 7, 7-(4-((dimethylamino)methyl)-3-(trifluoromethyl)phenyl)-2-(((3S,4R)-3-hydroxytetrahydro-2H-pyran-4-yl)amino)-N,N-dimethyl-7H-pyrrolo[2,3-d]pyrimidine-6-carboxamide]
3.47	CN(C)C(=O)c1cc2cnc(N[C@@H]3CCOC[C@H]3O)nc2n1-c1ccc2c(c1)CCC2N(C)C (stereo partly drawn) [Example 12, 7-(1-(dimethylamino)-2,3-dihydro-1H-inden-5-yl)-2-(((3S,4R)-3-hydroxytetrahydro-2H-pyran-4-yl)amino)-N,N-dimethyl-7H-pyrrolo[2,3-d]pyrimidine-6-carboxamide]
